From PubChem BioAssay AID504706 (National Center for Advancing Translational Sciences (NCATS), 2011)
In all, about 320,000 compounds went through this assay and about 200 (0.062%) were called active. The inconclusive results got no clear call from the source; some entries with a clear call stand among them for comparison. Calls follow the shape of the dose curve; as a rule, active = well fitted activation curve with a large enough effect; inconclusive = small, poorly fitted or top-dose-only effect; inactive = no such curve, though single readings can be large or run the other way. No potency is given beside an inconclusive call; the fits are too rough.

assay: qHTS assay for re-activators of p53 using a Luc reporter; conditions: H1299 p53-A138V BP100-luciferase reporter, luminescence, 24 h; series mostly up to 92.2 µM; activity change, positive = activation: at the top concentration; also: nearly all actives have a fitted effect of over 45% in size; as to activity change, positive = activation: % of control where 0% means no effect
How it was run: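 p53-null H1299 cells stably carrying temperature-sensitive p53-A138V and a BP100-luciferase reporter were pinned with compounds (4-point, 1:5 series) and held 24 hrs at 37 deg C. Luminescence was read 10 min after detection reagent.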
Potency is read from the fitted curve at half-maximal effect; tags tell the direction and shape of the fitted curve.

With `CC(=O)Nc1ccc2nc(NC(=O)CS(=O)(=O)c3ccccc3)sc2c1` as the compound, how does the “activity change, positive = activation” value read?
Its value is inactive: 6.84%.

Which Potency does the source give for `COc1ccc(S(=O)(=O)C(C#N)c2nc3ccccc3nc2N2CCC(C)CC2)cc1` (centres undefined) here?
Its Potency is inconclusive [activator, single point].

With `CC(NC(=O)C12CC3CC(CC(C3)C1)C2)C(=O)NN=Cc1ccc([N+](=O)[O-])o1` (centres undefined) as the compound, how does the Potency read?
Its Potency is inconclusive [activator, partial curve, poor fit].

With `Cc1nc2c3c(-c4ccccc4)c(-c4ccccc4)oc3ncn2n1` as the compound, how does the “activity change, positive = activation” value read?
The value was inactive: 10.1%.

For `Cc1cccc(NC(=S)N/N=C/C(C)c2ccccc2)c1C` (centres undefined), which “activity change, positive = activation” value is on record?
Its value is inactive: -2.29%.

Which Potency does the source give for `CN(C(=O)c1cc2sccc2n1C)C1CCCCC1` here?
The Potency was inconclusive [activator, partial curve, poor fit].

With `COc1ccccc1Nc1nc(-c2cccs2)cs1` as the compound, how does the Potency read?
Its Potency is inconclusive [activator, full curve, poor fit].

With `CC(C)(C)C(=O)Nc1sc(-c2ccccc2)cc1C(=O)O` as the compound, how does the Potency read?
The Potency was inconclusive [activator, partial curve, poor fit].

With `Cc1cc(-c2ccccc2)n2ncc(-c3ccccc3)c2n1` as the compound, how does the “activity change, positive = activation” value read?
Its value is inactive: 46.1%.

For `Cc1c(C(N)=O)sc2nc(-c3ccccc3)cn12`, which Potency is on record?
The Potency was inconclusive [activator, partial curve, poor fit].

Which Potency does the source give for `Oc1ccc(-c2csc(-c3cccnc3)n2)cc1O` here?
The Potency was inconclusive [activator, partial curve, poor fit].

Which Potency does the source give for `O=C(CSc1ccc(Cl)cc1)Nc1cccc(-c2nc3ccccc3[nH]2)c1` here?
The Potency was inconclusive [activator, partial curve, poor fit].

With `Cc1ccc(/C=N/NC(=O)c2cccs2)s1` as the compound, how does the Potency read?
Its Potency is inconclusive [activator, full curve, poor fit].

Which Potency does the source give for `CCn1c(NC(=O)c2ccc(C)cc2)c2ccccc2nc1=O` here?
The Potency was inconclusive [activator, partial curve, poor fit].

Which Potency does the source give for `O=C(N/N=C/c1sc(=O)[nH]c1-[n+]1ccc2ccccc2c1)c1ccccc1[O-]` here?
Its Potency is inconclusive [activator, partial curve, poor fit].

With `Cc1ccc(C(=O)CSc2nnc(CNc3ccc(F)cc3)o2)cc1` as the compound, how does the “activity change, positive = activation” value read?
Its value is inactive: -0.235%.

For `COc1ccc(N(CC(=O)NCc2ccco2)C(=O)CCC(=O)Nc2ccccn2)cc1`, which Potency is on record?
Its Potency is inconclusive [activator, partial curve, poor fit].

With `S=C(NCCc1ccccc1)N1CCN(Cc2ccccc2)CC1` as the compound, how does the Potency read?
Its Potency is inconclusive [activator, partial curve, poor fit].

Which Potency does the source give for `COc1ccc(-c2nnc(-c3ccccc3O)o2)cc1` here?
The Potency was inconclusive [activator, partial curve, poor fit].

With `O=C(COc1ccc2cc(Br)ccc2c1)N1CCCC1` as the compound, how does the Potency read?
The Potency was inconclusive [activator, single point].

Which Potency does the source give for `COc1ccc2c(c1OC)C(=O)OC2Nc1nc(-c2cc3ccccc3oc2=O)cs1` (centres undefined) here?
Its Potency is inconclusive [activator, full curve, poor fit].

Which “activity change, positive = activation” value does the source give for `N#Cc1cc2c(nc1SCc1ccccc1)CCCCC2` here?
The value was inactive: 14.8%.

For `Oc1ccccc1N1CCN(Cc2ncc(-c3ccccc3)o2)CC1`, which Potency is on record?
Its Potency is inconclusive [activator, single point].

Which Potency does the source give for `COc1cccc(C(=O)Nc2ccc(C(F)(F)F)n(C)c2=O)c1` here?
The Potency was inconclusive [activator, partial curve, poor fit].

Which Potency does the source give for `Brc1csc(/C=N/Nc2nc3ccccc3s2)c1` here?
The Potency was inconclusive [activator, partial curve, poor fit].

Which “activity change, positive = activation” value does the source give for `CCCCn1c(SCC(=O)Nc2nnc(CC)s2)nc2c1c(=O)n(C)c(=O)n2C` here?
Its value is inactive: 7.66%.

Which “activity change, positive = activation” value does the source give for `CCOc1cc(C(=O)NCc2ccc(C)cc2)ccc1OCC(=O)N1CCOCC1` here?
Its value is inactive: 0.652%.

Which “activity change, positive = activation” value does the source give for `COc1ccc(NC(=O)c2ccc(NC(=O)COC(=O)c3cnc(C)cn3)cc2)cc1` here?
The value was inactive: 4.51%.

Which Potency does the source give for `COc1cc(NC(=O)c2cccs2)ccc1NC(=O)c1ccco1` here?
The Potency was inconclusive [activator, full curve, poor fit].

With `CC(C)/C=N\NC(=O)CCCCC(=O)N/N=C/C(C)C` as the compound, how does the “activity change, positive = activation” value read?
The value was inactive: 6.44%.

For `CCn1c(SCC(=O)Nc2ccc3c(c2)OCCO3)nnc1-c1ccco1`, which “activity change, positive = activation” value is on record?
The value was inactive: -4.43%.

Which “activity change, positive = activation” value does the source give for `COc1cccc(CNC(=O)C(=O)NCC2OCCCN2S(=O)(=O)c2cc(C)ccc2C)c1` (centres undefined) here?
The value was inactive: -6.78%.

Which Potency does the source give for `CC(=O)NN1C(=O)/C(=C\c2ccc(Br)o2)SC1=S` here?
Its Potency is inconclusive [activator, partial curve, poor fit].

With `Cc1cc(C(=O)OC(C(=O)Nc2cccc(C(F)(F)F)c2)c2ccccc2)c(C)o1` (centres undefined) as the compound, how does the Potency read?
Its Potency is inconclusive [activator, single point].

Which Potency does the source give for `COc1cccc(-c2cc(C(=O)N3CCOCC3)no2)c1` here?
Its Potency is inconclusive [activator, full curve, poor fit].

With `CCc1cn([C@H]2C[C@H](O)[C@@H](CO)O2)c(=O)[nH]c1=O` as the compound, how does the “activity change, positive = activation” value read?
Its value is inactive: 2.59%.

For `O=C(CCCN1C(=O)CCC1=O)Nc1ccc2c(c1)OCCO2`, which Potency is on record?
The Potency was inconclusive [activator, single point].

For `O=C(COC(=O)c1ccccc1NC(=O)C1CC1)c1ccc2c(c1)OCCO2`, which Potency is on record?
The Potency was inconclusive [activator, partial curve, poor fit].

With `COc1ccc(N2C(=O)c3ccccc3NC2c2ccccc2O)cc1` (centres undefined) as the compound, how does the Potency read?
Its Potency is inconclusive [activator, full curve, poor fit].

For `C/C(=N\NC(=O)c1cc(C2CC2)nc2ccccc12)c1ccc(O)cc1O`, which Potency is on record?
The Potency was inconclusive [activator, single point].

With `CC(OC(=O)CNC(=O)C1CCCCC1)C(=O)NCc1ccccc1` (centres undefined) as the compound, how does the “activity change, positive = activation” value read?
Its value is inactive: 10.2%.

For `Cc1cccc(NC(=O)c2ccc(OCC3CCCO3)cc2)c1C` (centres undefined), which Potency is on record?
The Potency was inconclusive [activator, partial curve].

For `O=C1C2CCCN2C(c2ccccc2)N1c1ccc(F)cc1` (centres undefined), which Potency is on record?
Its Potency is inconclusive [activator, single point].

For `COc1cc(SC)ccc1C(=O)Nc1ccon1`, which Potency is on record?
The Potency was inconclusive [activator, partial curve, poor fit].

For `NC1=NN(c2cccc(C(=O)O)c2)C(=O)C1`, which Potency is on record?
The Potency was inconclusive [activator, full curve, poor fit].

For `CCOC(=O)C1=NN(c2ccc(Cl)cc2)C(=O)C1`, which Potency is on record?
Its Potency is inconclusive [activator, partial curve, poor fit].

Which “activity change, positive = activation” value does the source give for `COC(=O)CN1C(=O)[C@H]2[C@@H](/C=C/c3ccccc3)N3C(=O)CN(Cc4ccc(-c5ccccc5)cc4)C(=O)[C@@]3(C)[C@H]2C1=O` here?
Its value is inactive: -1.54%.

For `O=C(CCc1ccccc1)n1nc(-c2ccccc2)nc1NCc1ccco1`, which Potency is on record?
Its Potency is inconclusive [activator, full curve].

For `Cc1cnc(Nc2nc3ccccc3o2)nc1C(=O)Nc1cccc(C(F)(F)F)c1`, which “activity change, positive = activation” value is on record?
The value was inactive: 4.85%.

With `COCCNC(=O)CN(C(=O)CCC(=O)Nc1ccccn1)c1ccccc1OC` as the compound, how does the Potency read?
The Potency was inconclusive [activator, single point].

Which “activity change, positive = activation” value does the source give for `Cc1ccc(-c2nn(-c3ccccc3)cc2/C=N/NC(=O)c2ccncc2)o1` here?
Its value is inactive: 15%.

With `Cc1ccc2cc(NC(=O)c3cccc(F)c3)ccc2n1` as the compound, how does the Potency read?
Its Potency is inconclusive [activator, full curve, poor fit].

For `O=C(Nc1ccc(CN2CCOCC2)cc1)c1cccs1`, which Potency is on record?
Its Potency is inconclusive [activator, full curve, poor fit].

Which Potency does the source give for `N/C(=N\OC(=O)c1ccc2c(c1)OCO2)c1ccc(Cl)cc1` here?
Its Potency is inconclusive [activator, partial curve].

For `Cc1ccc(C(=O)c2ccccc2C(=O)OCC(=O)NCCc2ccc(Cl)cc2Cl)cc1`, which “activity change, positive = activation” value is on record?
Its value is inactive: -1.89%.

With `O=C(O)c1nn(-c2ccccc2)nc1-c1nn(-c2ccccc2)nc1C(=O)O` as the compound, how does the “activity change, positive = activation” value read?
Its value is inactive: -5.61%.

For `COc1ccc(-c2[nH]ncc2CN(C)Cc2cnccn2)c(OC)c1`, which Potency is on record?
Its Potency is inconclusive [activator, full curve, poor fit].

With `O=C1/C(=C\c2ccc3ccccc3c2)CCCc2ccccc21` as the compound, how does the Potency read?
Its Potency is inconclusive [activator, partial curve, poor fit].

With `Cc1cc(C)n(-c2nc(NCCO)c3c4c(sc3n2)CCCC4)n1` as the compound, how does the “activity change, positive = activation” value read?
The value was inactive: -3.63%.

Which Potency does the source give for `Cc1nc2cc(NC(=O)N3CCC(c4ccccc4)C3)ccc2n1C` (centres undefined) here?
Its Potency is inconclusive [activator, partial curve, poor fit].

With `O=C(Nc1ccc2oc(-c3ccccc3Cl)nc2c1)c1cncc(Br)c1` as the compound, how does the Potency read?
The Potency was inconclusive [activator, single point].

Which “activity change, positive = activation” value does the source give for `Cc1ccc(OCC(=O)N(Cc2ccccc2)C2CCS(=O)(=O)C2)c([N+](=O)[O-])n1` (centres undefined) here?
Its value is inactive: -7.56%.

With `Cc1c(C(=O)Nc2nccs2)oc2ccc(Br)cc12` as the compound, how does the Potency read?
Its Potency is inconclusive [activator, partial curve, poor fit].

For `CC(N)=Nc1ccc([N+](=O)[O-])cc1`, which “activity change, positive = activation” value is on record?
Its value is inactive: -10.1%.

Which Potency does the source give for `Cc1cc(-c2ccccc2)nc(N2CCC(C(=O)NC34CC5CC(CC(C5)C3)C4)CC2)n1` here?
Its Potency is inconclusive [activator, single point].

For `Cc1cc(=O)n2c(C(=O)Nc3ccc(C(=O)OC(C)C)cc3)c(C(=O)Nc3ccccc3)sc2n1`, which “activity change, positive = activation” value is on record?
The value was inactive: -2.1%.

For `COc1cccc(C=O)c1OCCCOc1cccc2cccnc12`, which “activity change, positive = activation” value is on record?
The value was inactive: -22.2%.

Which “activity change, positive = activation” value does the source give for `Cc1ccc(S(=O)(=O)N2CCN(S(=O)(=O)c3ccccc3Br)CC2)cc1` here?
The value was inactive: 4.94%.

With `COc1cccc(Nc2ncnc3c2cnn3-c2cccc(C)c2)c1` as the compound, how does the Potency read?
Its Potency is inconclusive [activator, full curve, poor fit].
